In PubChem BioAssay AID686979 (National Center for Advancing Translational Sciences (NCATS), 2013):
The campaign covered roughly 420,000 compounds. About 50,000 (12%) were called active. This list was built around the results that the source calls inconclusive (neither active nor inactive); the mix of calls is not that of the screen. Calls follow the shape of the dose curve; as a rule, active = well fitted inhibition curve with a large enough effect; inconclusive = small, poorly fitted or top-dose-only effect; inactive = flat fitted curve, though single readings scatter. Potencies of inconclusive entries are left out as doubtful fits.

Assay: qHTS for Inhibitors of human tyrosyl-DNA phosphodiesterase 1 (TDP1): qHTS in cells in presence of CPT; also: nearly all actives have a fitted effect of over 55% in size
Conditions: chicken DT40 Tdp1-/-;hTDP1 cells + 20 nM CPT, ATP luminescence, 48 h; activity change, negative = growth inhibition: at 46.2 µM (top of the series) unless noted
Procedure, shortened: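 Cell growth measured by CellTiter-Glo luminescence after a minimum 48 h, 37 C compound exposure with 20 nM CPT in Tdp1-knockout DT40 cells stably expressing hTDP1, seeded 400/well; qHTS titration format.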
% is scaled to controls: 0 for no effect and ±100 for the full control effect; potency is read from the fitted curve at half-maximal effect; tags tell the direction and shape of the fitted curve.

| SMILES | Potency | activity change, negative = growth inhibition |
| --- | --- | --- |
| CC(=O)N1CCc2cc(S(=O)(=O)N3CCCCCC3)ccc21 | inconclusive [inhibitor, single point] |  |
| COc1ccccc1C(=O)C1CCCN(C(=O)c2ccccc2C(C)=O)C1 (centres undefined) |  | inactive: -22.7% |
| Cc1ccc(Nc2nnc(SCC(=O)c3cc4ccccc4o3)s2)cc1C | inconclusive [inhibitor, single point] |  |
| COCC1CCN(C(=O)c2cc(COc3ccc4c(c3)CCCC4)on2)C1 (centres undefined) |  | inconclusive: -30.4% [inhibitor] |
| S=C(NCC1CCCO1)Nc1ccc(Nc2ccccc2)cc1 (centres undefined) |  | inconclusive: -34.6% [inhibitor] |
| S=C(NNC(=S)Nc1ccccc1)Nc1ccccc1 | active: 3.66 µM |  |
| CCOC(=O)c1ccc(NC(=O)CC2C(=O)N(c3ccc(F)cc3)C(=O)N2CCCOC)cc1 (centres undefined) | inconclusive [inhibitor, single point] |  |
| CC(C)C[C@H](NC(=O)c1nc[nH]c1C(=O)N[C@@H](CC(C)C)C(=O)OC(C)(C)C)C(=O)OC(C)(C)C | active: 23.1 µM |  |
| Cc1ccccc1CSc1nnc(CCCCCNC(=O)OC(C)(C)C)o1 | inconclusive [inhibitor, single point] |  |
| COc1cc2oc3ccccc3c2cc1N(CC(=O)N(C)C)S(=O)(=O)c1ccc(C)cc1 |  | inactive: -7.67% |
| C[C@H](CO)N1C[C@H](C)[C@@H](CN(C)CC2CCOCC2)Oc2cc(C#Cc3ccccc3F)ccc2S1(=O)=O | active: 18.4 µM |  |
| COCCN1C[C@@H](CO)O[C@@H](n2cnc3c(N(C)C)ncnc32)C1 |  | inactive: -3.08% |
| Cc1nn(-c2ccccc2)c2sc(C(=O)N3CCCCC3)cc12 | inconclusive [inhibitor, single point] |  |
| CC[C@]12c3[nH]c4ccc(Cl)cc4c3CCN1C(=O)[C@@H](CC(=O)NCCCOC)C[C@@H]2C(=O)N1CCN(C(=O)c2ccco2)CC1 |  | inactive: -26.2% |
| COC(=O)Cc1ccc(NC(=S)NCc2ccc(S(N)(=O)=O)cc2)cc1 | active: 20.6 µM |  |
| Cc1ccc(-n2c(C)cc(C3N=C(N)Nc4nc5ccccc5n43)c2C)c(C)c1 (centres undefined) | active: 20.6 µM |  |
| COC(=O)c1c(-c2ccc(C(C)(C)C)cc2)csc1NC(=O)C1C2CCC(O2)C1C(=O)O (centres undefined) | inconclusive [inhibitor, single point] |  |
| c1cc2c(cc1-c1cnc3n1CCC3)OCCO2 | active: 18.4 µM |  |
| COc1ccc(/C=N/Nc2nnc(C)n2N)cc1OC(C)=O | active: 8.2 µM |  |
| Cn1c(CN2CCCCC2)nc2cc(NC(=O)c3ccc(Cl)cc3)ccc21 | inconclusive [inhibitor, single point] |  |
| CCOC(=O)c1cnc(NCc2ccc(Cl)cc2)c2ccccc12 | inconclusive [inhibitor, single point] |  |
| O=C(Nc1ccccc1)Nc1nc(-c2ccc(F)c(F)c2)cs1 | active: 5.8 µM |  |

| SMILES | Potency | activity change, negative = growth inhibition |
| --- | --- | --- |
| Cc1ccc2[nH]c3c(=O)n(CC(=O)N(C)Cc4ccccc4)ncc3c2c1 |  | inactive: -12% |
| Cc1ccc2[nH]c(=O)c(CN(Cc3cccnc3)C(=O)c3ccncc3)cc2c1 | inconclusive [inhibitor, single point] |  |
| COC(=O)c1ccc(/C=N\NC(=O)c2c(C)nc3ccc(Cl)cn23)cc1 | inconclusive [inhibitor, partial curve] |  |
| COc1ccc(-c2oc3ccc(N4CCOCC4)cc3c2C#CC2(O)CCCCC2)cc1 | inconclusive [inhibitor, single point] |  |
| O=C(NCc1ccccc1)c1ccc(Oc2ccc(C(=O)NCc3ccccc3)cc2)cc1 | inconclusive [inhibitor, partial curve] |  |
| N#C/C(=C\c1cccnc1)c1ccccc1[N+](=O)[O-] |  | inactive: -3.49% |
| COc1ccccc1CNc1nc2cc(-c3ccccc3C)sc2c(=O)n1C | inconclusive [inhibitor, single point] |  |
| COc1cc(C(=O)Nc2nc3ccccc3s2)ccc1OCc1c(C)noc1C | inconclusive [inhibitor, partial curve, poor fit] |  |
| COc1cccc(C(=O)NC(=S)N2c3ccccc3CC2C)c1OC (centres undefined) |  | inactive: -1.07% |
| CCOC(=O)Cc1csc(NC(=O)c2ccc(Cl)s2)n1 | inconclusive [inhibitor, partial curve, poor fit] |  |
| COc1cccc2sc(N3CCN(C(=O)c4cccs4)CC3)nc12 | inconclusive [inhibitor, partial curve] |  |
| Nc1cc(N)c(OCC(F)(F)F)cc1OCC(F)(F)F | active: 2.59 µM |  |
| CCOc1cc(/C=C2/COc3ccccc3C2=O)ccc1OCC(=O)N(C)C | inconclusive [inhibitor, single point] |  |
| COc1ccc(-c2ccc3c(c2)S(=O)(=O)c2cccc(C(=O)NCc4cc(C)oc4C(F)(F)F)c2C3=O)cc1OC | inconclusive [inhibitor, single point] |  |
| CC(C)c1ccc2c(c1)CCC1C(C)(C(N)=O)CCCC21C (centres undefined) | inconclusive [inhibitor, single point] |  |
| Cc1cccc(N2CCN(C(=O)c3ccnn3C)CC2)c1C |  | inactive: -13.6% |
| CCOC(=O)N1CCC(NC(=O)c2ccc3c(c2)N(C)C(=O)/C(=C/c2cccc(OC)c2)S3)CC1 | active: 18.4 µM |  |
| CC(C)c1ccc(N(C(=O)c2cc3ccccc3oc2=O)C2C=CS(=O)(=O)C2)cc1 (centres undefined) | inconclusive [inhibitor, single point] |  |
| O=C(CCN1C(=O)S/C(=C\c2ccccc2)C1=O)N1CCOCC1 | inconclusive [inhibitor, single point] |  |
| CC(/C=N/NC(=O)c1cc(-c2cccs2)[nH]n1)=C\c1ccccc1 | inconclusive [inhibitor, single point] |  |
| CCOc1ccc(CNS(=O)(=O)c2cc(-c3cc(C)no3)ccc2OC)cc1OC |  | inactive: -2.34% |
| CSc1ccc(CCNC(=O)c2nn(C)c3c2CS(=O)(=O)c2ccccc2-3)cc1 | inconclusive [inhibitor, single point] |  |
